Where “and” joins values, the source holds several entries; their conditions need not be identical. Equal values may be shown once. The campaign covered roughly 420,000 compounds. About 64,000 (15%) were called active. Inconclusive results, whose numbers are uncertain, are shown with a selection of clear calls. Calls come from the whole dose curve; as a rule, active = well fitted inhibition curve with a large enough effect; inconclusive = small, poorly fitted or top-dose-only effect; inactive = flat fitted curve, though single readings scatter. Potencies of inconclusive entries are left out as doubtful fits. Peptide text beside a SMILES is read from it.
Test: qHTS for Inhibitors of human tyrosyl-DNA phosphodiesterase 1 (TDP1): qHTS in cells in absence of CPT; note: nearly all actives have a fitted effect of over 55% in size
Conditions: DT40 Tdp1-/- hTDP1 cells, no CPT, ATP luminescence, 48 h; activity change, negative = growth inhibition: at 46.2 µM (top of the series) unless noted
Outline: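 Luminescent ATP content (CellTiter-Glo) served as the growth readout. Knockout chicken DT40 cells expressing human TDP1 were exposed to compounds without camptothecin for a minimum 48 hr at 37 °C.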
% is set by controls: 0 for no effect and ±100 for the full control effect; potency is the fitted concentration of half-maximal effect; tags give direction and shape of the fitted curve.

SMILES | Potency | activity change, negative = growth inhibition
Cc1cccc(N2CCN(C(=O)c3cccc(S(=O)(=O)N4CCCCC4)c3)CC2)c1C | inconclusive [inhibitor, single point] | –
CN(CC(=O)N1CCN(c2cccc(Cl)c2)CC1)S(=O)(=O)c1cnc[nH]1 | – | inactive: 3.08%
CC(C)CCn1c(=O)c2ccccc2c2ccccc2c1=O | inconclusive [inhibitor, partial curve] | –
CSc1nsc(/C=C/Nc2ccc(F)cc2)c1C#N | inconclusive [inhibitor, single point] | –
CCOC(=O)c1cc(-c2ccccc2)n(CCC(=O)Nc2ccc(Cl)c(C(F)(F)F)c2)c1C | active: 4.61 µM | –
Cc1ccc(OCCNC(=O)c2ccc3ccccc3n2)cc1 | inconclusive [inhibitor, full curve, poor fit] | –
COc1ccc(CN2CCn3nc(C(=O)NC4CC4)cc3C2=O)cc1 | – | inactive: -1.74%
Cc1nn(C)c2c1c(C(F)(F)F)cc(=O)n2Cc1cccc(Br)c1 | – | inactive: -0.841%
CCOC(=O)Cn1c(=O)c2c(nc(Br)n2CC(=O)OCC)n(C)c1=O | – | inactive: -5.25%
COCCN(CC1CCCN(C2Cc3ccccc3C2)C1)C(=O)CCC(N)=O (configuration not stated) | inconclusive [inhibitor, single point] | –
CC1(C)OC(=O)C2=C(C[C@@H](C3CC3)O[C@@H]2C2CC2)O1 | – | inactive: -15.8%
COc1ccc(CNC(=O)c2[nH]c(C)c(C(C)=O)c2C)cc1 | inconclusive [inhibitor, single point] | –
Cc1c(/C=N/NC(=O)COc2ccccc2[N+](=O)[O-])c2ccccc2n1C | inconclusive [inhibitor, partial curve] | –
Cc1cc(C)c2c(c1)/C(=c1/sc3n(c1=O)CN(c1ccccc1)CN=3)C(=O)N2 | active: 16.4 µM | –
O=C(Nc1ccc(Cl)c(C(F)(F)F)c1)[C@@H]1CC=C[C@@H]2CCN(C3CCCCC3)C(=O)[C@@H]21 | active: 8.91 µM and active: 16.4 µM | –
O=C(CCN1C(=O)c2ccccc2C1=O)NCc1ccc(Cl)cc1 | – | inactive: 3.9%
O=C(CC(CC(=O)c1ccccc1)c1ccccn1)c1ccccc1 | active: 14.6 µM | –
CN(C)c1ccnc2sc3c(=O)n(Cc4ccccc4)cnc3c12 | inconclusive [inhibitor, partial curve] | –
CCOC(=O)N1CCN(C(=O)/C(=C/c2ccc(OC)c(OC)c2)NC(=O)c2ccccc2)CC1 | – | inactive: -20.6%
CCCCNc1nc2ccccc2[nH]1 | inconclusive [inhibitor, partial curve, poor fit] | –
Cn1cc(S(=O)(=O)N2CCCCCC2)cc1C(=O)NCc1ccccc1Cl | inconclusive [inhibitor, partial curve] | –
COc1ccc(NC(=O)C2CCCN(S(=O)(=O)c3ccc4c(c3)CCCN4C(C)=O)C2)cc1Cl (configuration not stated) | inconclusive [inhibitor, single point] | –
CCCNC(=O)C1(C)CCCN(Cc2cccs2)C1 (configuration not stated) | – | inactive: -14.1%
COC(=O)c1sccc1NC(=S)N1CCN(c2ccc(F)cc2)CC1 | – | inactive: -8.8%

SMILES | Potency | activity change, negative = growth inhibition
COc1ccc(NC(=O)CN(c2ccc(C(C)C)cc2)S(=O)(=O)c2c(C)noc2C)cc1OC | – | inconclusive: -34.5% [inhibitor]
Cc1cc2ccccc2n1CCNC(=O)C1CC1 | – | inactive: -21.4%
Cc1c(OC(C)C(=O)NCc2cccnc2)ccc2c3c(c(=O)oc12)CCCC3 (configuration not stated) | inconclusive [inhibitor, partial curve] | –
Cc1ccccc1-c1cncnc1NC1CCNCC1 | – | inactive: -5.42%
Cc1cc(-c2nnc3n2CCCCC3)c(C)n1-c1ccccc1 | active: 16.4 µM | –
COc1cccc(/C=N\NC(=O)c2cc(OCC(F)(F)F)ccc2OCC(F)(F)F)c1 | inconclusive [inhibitor, partial curve, poor fit] | –
O=C(N/N=C/c1cccc(O)c1)c1cc(-c2ccc3c(c2)OCO3)n[nH]1 | active: 20.6 µM | –
Cc1c(Nc2c3ccccc3nc3ccccc23)c(=O)n(-c2ccccc2)n1C | – | inactive: -14.9%
Cn1c(SCc2nnc(-c3ccc(F)cc3)o2)nnc1C1COc2ccccc2O1 (configuration not stated) | inconclusive [inhibitor, single point] | –
C1=C(c2ccccc2)Nc2ncnn2C1c1ccccc1 (configuration not stated) | – | inactive: -25.9%
COCCNC(=O)C1CCCN(C(=O)c2cccnc2Oc2ccccc2)CC1 (configuration not stated) | – | inactive: 4.3%
Cc1ccc([C@@H]2CC(=O)[C@@H]3CN(S(=O)(=O)c4ccc(C)cc4)[C@H](c4ccc(Cl)cc4)C[C@@H]3N2S(=O)(=O)c2ccc(C)cc2)cc1 | inconclusive [inhibitor, single point] | –
COc1ccc(-n2nnnc2C(c2ccnc3ccccc23)N2CCN(C/C=C/c3ccccc3)CC2)cc1 (configuration not stated) | active: 4.61 µM | –
COc1ccc([N+](=O)[O-])cc1NC(=O)CCN1CCN(c2ccccc2OC)CC1 | inconclusive [inhibitor, partial curve] | –
O=C(c1ccccc1)N1CCN(CC(O)COc2ccc(Br)cc2)CC1 (configuration not stated) | inconclusive [inhibitor, single point] | –
Cc1ccccc1OCCC(=O)Nc1ccc2c(C)cc(=O)oc2c1 | – | inactive: 13.3%
C/C(=N\NC(=O)c1ccc(Br)cc1)c1cccc(NC(=O)c2cccnc2)c1 | – | inactive: -21%
O=C(N=Nc1c(O)[nH]c2ccccc12)c1ccc(CN2CCOCC2)cc1 | inconclusive [inhibitor, partial curve] | –
O=C(Nc1nc2nccc(-c3ccccc3)n2n1)c1ccc(F)cc1 | – | inactive: -1.89%
O=C(Cn1nc2n(c1=O)-c1ccccc1SC2)N/N=C/c1cccs1 | inconclusive [inhibitor, partial curve] | –
CCCNC(=O)[C@@H]1CCCN1C(=O)[C@@H]1Cc2ccccc2CN1 (HELM PEPTIDE1{[Tic].P.[CCCN[*:1]]}$$$$V2.0) | inconclusive [inhibitor, single point] | –
CCCCCOc1ccc(/C=C/C(=O)Nc2sc(C(C)=O)c(C)c2C(=O)OCC)cc1OC | active: 5.8 µM | –
COc1ccc(-c2nc3c4ccccc4[nH]c(=O)n3n2)cc1 | inconclusive [inhibitor, partial curve] | –

Source: PubChem BioAssay AID686978 (National Center for Advancing Translational Sciences (NCATS), 2013)
